The text below walks through data of PMC10726135.

Some of the results follow. At the low end of the ranking the order means little. Measured with an extract: partners may take part in the binding.

For the assay, the target named is T1, HNF4alpha2 (COS-7 nuclear extract) (UniProt P41235).
T1 sequence: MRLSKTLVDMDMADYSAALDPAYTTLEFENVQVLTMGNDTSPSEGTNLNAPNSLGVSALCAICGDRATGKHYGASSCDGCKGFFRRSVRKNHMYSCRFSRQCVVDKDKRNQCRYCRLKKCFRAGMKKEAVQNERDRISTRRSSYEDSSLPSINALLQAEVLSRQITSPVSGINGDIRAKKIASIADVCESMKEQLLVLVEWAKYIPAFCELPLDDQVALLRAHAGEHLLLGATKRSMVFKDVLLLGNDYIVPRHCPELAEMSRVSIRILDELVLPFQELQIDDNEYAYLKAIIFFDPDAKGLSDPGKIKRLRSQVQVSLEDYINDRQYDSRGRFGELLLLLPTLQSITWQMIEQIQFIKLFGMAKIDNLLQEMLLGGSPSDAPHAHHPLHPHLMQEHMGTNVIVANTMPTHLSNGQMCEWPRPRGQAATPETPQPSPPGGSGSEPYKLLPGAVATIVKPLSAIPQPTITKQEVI
In words: protein-binding microarray. To be noted: COS-7 nuclear extract on double-stranded Agilent 4x180k PBM; binding buffer, salt, pH and temperature not given; high values mean tight binding; double strand, one strand shown; sequences stand for … in …GCCTAGGGAGATTAGAGTATCGGTCGA
In the case of GTCAGTGAACTGTGGTTGACAGGCAACAAT, the binding signal (log2 normalized intensity) amounted to 0.656.
In the case of CCGCCACCCCCCAGAGGGCCATCTAGCTTA it was 2.7.
In the case of CGAATGGTCGCGCCGGGCGCCGCTCTGAGT it was -1.12; in that of CAGGGATAGCGCCCACACTGCCCATCCCCA, 2.22; in that of GCTGGAGGTGTTAAAGTGCCATTGAGATGG, 0.489.
Consider TGCAGTACTTTTCAGGAACTGTTCTTTGAC, for which the binding signal (log2 normalized intensity) was 1.18.
In the case of TCATGGCTTAAAACGACTGATTCTCAGGCA it was -1.04; in that of GAGGATGAGGACTTTGGTCTTATTACTAAG, 2.86; in that of AGCTCAGTGGAAATTGTCCTGCGGTTGGCT, -0.78.
In the case of TATCTCTCCCCCACCACTGCTTCCTGCCCC it was 5.62.
In the case of GCCAGAAAAGCAAACCGAGATCAAGGGACA it was -1.1; in that of CTTACAGGACAAAAGTAAATATGGTTTACC, 0.322.
In the case of GGACAGCTGGCCTCATGCCTTATCTACATA, the binding signal (log2 normalized intensity) was -0.765.
The same measure for AATCTTCCTTCTTACAGCTGGCTCACTATT: 1.19; for TCAGACTGAGAGAGCAGGGCCCGAGGCCTT: -1.2.
In the case of ATTACCAATGAGAAACCTCAAAGGTTAGGG it was -0.928.
In the case of ATAAGCGAAGATAACCTACTTAAAAAGAAA it was -0.986; in that of TCCAGAAGAAAGGGGAGATAATGCCAGAAA, -0.923.
Take GAGGGCGAGAAGTAGGTGCAAGGGAATGTA: the binding signal (log2 normalized intensity) was -0.245.
In the case of TATCAGAAGAACTGCACTGTATCTTATCAG it was -1.04.
As for TACACAGTGCCTGCTTGCAGATAAAACATT, the binding signal (log2 normalized intensity) was -0.831.
In the case of GGGCAGAGAGGCTGCCATCCCACATTCCAC it was -1.13; in that of TCTGACCTCTTTCAAGCCTGAACAAACATG, 0.93; in that of ATAAAGGGTGTGAGAGAGAAGGCAAGATTT, -0.713.
In the case of TATGAGCTATGATTGCGCCACTGCATTCCA it was -1.12; in that of CCTTCCGGAGGCTCTGCTGAAGAGAAGCCA, -1.13; in that of GTTGGCAAACAAAAAGCTCTGCCTACGCAT, -1.13.
In the case of GACCTCATTTGCTCCCAGTGCACACAGACT it was -1.02; in that of GGAAAGCTGCAGGCATGAGAGGTGCTGCAT, -1.03.
As to GAGCCAGAGGGGCCAGGAACGTCACACTGA, the binding signal (log2 normalized intensity) was -1.08.
On to TCAATGGTTGCACTCTGGTGCCCTCTGAGT, for which the binding signal (log2 normalized intensity) is 2.17.
The same measure for CCTCCTCTGAAGGAACTTCTGGTTCTTTCT: 0.402; for GGCTCTCCCGGGGCGGGGGTGACCAGATTA: 1.43; for CCTAAAATTGACCTTTGATCACTCATGGGC: 8.21.
In the case of TTAGCTATTTGACCTTCGGCCTCAATTATA it was 6.43; in that of TCCGAACCTGCCAAAGAAGAAAACAATGAC, -1.2; in that of TTATCTAAATGGAGTTACTGTTGCTTCGTG, 1.57.
With CCTCTGAGTCCTCTTCCCAACTTGGCCTCA, the binding signal (log2 normalized intensity) was 1.49.
In the case of ACTCTGTGAGAAGGGGTAGTGATCCTGGTA it was 0.899.
The same measure for ATCCCCTCCTGGACTTTGGTCTCATGGGCC: 6.4.
In the case of TGGCGCTGTTGACCTTGAAATGCCATGTGA it was 1.37.
As to ACCTTTAAGCACCCAGAGCCCCACCGTTGT, the binding signal (log2 normalized intensity) was found to be 2.83.
Turning to GTAACGTGTCAGAGGTCACTCAGCAATAAA, the binding signal (log2 normalized intensity) came out at 1.36.
Turning to TTAGTAACTGACTTTAACTTCAAAGTCCTG, the binding signal (log2 normalized intensity) turned out to be 0.735.
As to GAGCATATAAAAGCAGTCTACACTAGGAGG, the binding signal (log2 normalized intensity) is -1.1.
The same measure for TCACAATCACAAATGCCTTCAGGGGCATTT: -0.657; for GAAAAAGCCCAAGAAACTTCAAAGAGTGCA: -1.02.
In the case of AATAATCTAGAAACCAGTGAGAAAATGGTG it was 0.485; in that of TCCGAACTATTTGGTGCACAAGAGGGCAGT, 1.58; in that of GGATCCTTGGAGGACCTTGGGTTCATTTTA, 1.97.
The same measure for CCCTGGTCCAGGCCATGCAACAGCCTCCTC: -1.19; for ATAGCCACTGGGGTCATGGAGCTGGAGGGC: 0.136; for ATCGCCCTTTGAGGAGGCCTTTCCTGACCC: 2.78.
For CTCCGGTCAAGATCAAGTGGAGCCTCTCCT, the binding signal (log2 normalized intensity) is -1.07.
TAGGTTTTTTTTTTTTTTAACGGTCTGCCC: the binding signal (log2 normalized intensity) stood at 2.59.
With GTTGCCCGCTTGGCCCTCTTCCAAGTGTTC, the binding signal (log2 normalized intensity) stood at 1.46.
In the case of GAAATAAAAGAGCCTGAGCCACTTCACTGG it was -1.
The same measure for TATGTGCTCACTCCTGGGACAAGGACTTTG: 2.85; for TTGGGAGGGAAGAGGCAAGGAAAGATAAAT: -0.832; for GAGCTCTGTGTCAAAAATCAGGGACAAAGT: 1.49.
As for CCACACAGCCTGTCAAAGGGAGAAAGACAT, the binding signal (log2 normalized intensity) was -1.14.
In the case of TTCAAATCCTTGCTCTGTGGTTTAGTGGTT it was 2.31.
Turning to TGCATGCTGCCAAACTGCCCAGCAGAAAAG, the binding signal (log2 normalized intensity) is -1.11.
In the case of CCAAGATTGAGGCCAGCAAAGGGCAAGTAA it was 0.975; in that of ACATGAGTAAACAAGCTCTTTAGATAAACT, -1.05; in that of ACTACATTCTTTGAAGACTAGGCTCCAGAT, -1.1.
On to TCACGTTGGGGGTGCTGATGTTAACACAAG, for which the binding signal (log2 normalized intensity) is -0.824.
The same measure for AGCAAACCCCAGCTGAACTCACTACCCTAT: -1.15.
In the case of TTTGGGTAGGAATAGAGCTCTAAACCACCC it was -1.13; in that of CTGCCCTACTGTATATCCTGACACAGGAAG, -0.467; in that of AGTTCTGGGCCAAAGGTCATACCTGTCTAG, 5.59.
In the case of AGGAGAAGCTGGAAGGACAGCATTCCTGTC it was -1.04.
